Source: the supplement of paper PMC12067230
This is a noisy data set.

experiment: amyloid nucleation score relative to library mode (yeast Sup35 reporter selection) (log enrichment difference); higher = more amyloid nucleation; sequences are the first 22 residues of the Bri2 peptide extended by up to 12 random residues; conditions: random library (experiment): 1;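 active = nucleation score significantly above 0 at FDR 0.05; inactive = not significantly above 0 or absent from output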
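Also: [psi-pin-] Saccharomyces cerevisiae expressing SupN fusions, induced by 100 µM Cu2SO4, selected 7 d at 30 °C without adenine and uracil, scored by deep sequencing of output versus input.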

Sequence | amyloid nucleation score
EASNCFAIRHFENKFAVETLICDCSCKSVVTKAV | 6.95
EASNCFAIRHFENKFAVETLICKGEPRNVGMWCC | inactive
EASNCFAIRHFENKFAVETLICMCSYVYSSFNAS | 0.895
EASNCFAIRHFENKFAVETLICYTDVRLNIPQYW | 4.46
EASNCFAIRHFENKFAVETLICLWDCRG | 0.565
EASNCFAIRHFENKFAVETLICDVV | 0.547
EASNCFAIRHFENKFAVETLICLRCSDECHVMLP | inactive
EASNCFAIRHFENKFAVETLICETCGR | inactive
EASNCFAIRHFENKFAVETLICRDSLASWYEPLT | inactive
EASNCFAIRHFENKFAVETLICRWNQRRW | 0.848
EASNCFAIRHFENKFAVETLICAWMFLFLYRGQS | -0.0572
EASNCFAIRHFENKFAVETLICLMSHCKCPFTEA | 7.49
EASNCFAIRHFENKFAVETLICVDKYQLSVNSGE | 0.818
EASNCFAIRHFENKFAVETLICFVNVSRNHVFHD | 5.46
EASNCFAIRHFENKFAVETLICYRFYTACRRDVS | inactive
EASNCFAIRHFENKFAVETLICDALYIRVSMG | inactive
EASNCFAIRHFENKFAVETLICDAQAFRPDVGQS | -0.338
EASNCFAIRHFENKFAVETLICVPWVSQYILECC | inactive
EASNCFAIRHFENKFAVETLICMFWIATRWQANG | inactive
EASNCFAIRHFENKFAVETLICHFGAG | 6.83
EASNCFAIRHFENKFAVETLICKIQSWPGTGICG | inactive
EASNCFAIRHFENKFAVETLICECETLTATGTQS | inactive
EASNCFAIRHFENKFAVETLICLWKTVRQQCRYT | inactive
EASNCFAIRHFENKFAVETLICVVQYNVLHTDAG | 6.49
EASNCFAIRHFENKFAVETLICMVTMTLQLSYAT | inactive
EASNCFAIRHFENKFAVETLICIVDFGDDFSYFA | 5.52
EASNCFAIRHFENKFAVETLICLVDDGCNGHLLV | inactive

Sequence | amyloid nucleation score
EASNCFAIRHFENKFAVETLICTSSLPLSRVSRC | 0.362
EASNCFAIRHFENKFAVETLICPWR | 1.43
EASNCFAIRHFENKFAVETLICGDAVAGLASARK | inactive
EASNCFAIRHFENKFAVETLICLMIMDVCGGWLL | inactive
EASNCFAIRHFENKFAVETLICGSGTPDVAASSR | inactive
EASNCFAIRHFENKFAVETLICLVSSSLYVVTAW | -0.029
EASNCFAIRHFENKFAVETLICGRDTGNEQVAVR | inactive
EASNCFAIRHFENKFAVETLICMNQRLSNVMRA | 0.231
EASNCFAIRHFENKFAVETLICAVSVTW | inactive
EASNCFAIRHFENKFAVETLICYVGLAHQDRVEA | inactive
EASNCFAIRHFENKFAVETLICTTLIKYMFNVVM | inactive
EASNCFAIRHFENKFAVETLICMTLGWWVVPEGP | inactive
EASNCFAIRHFENKFAVETLICPYLVRMLCGAWV | inactive
EASNCFAIRHFENKFAVETLICIISMVFFGCLHS | inactive
EASNCFAIRHFENKFAVETLICPPTMRLLECYGA | inactive
EASNCFAIRHFENKFAVETLICKRWPQMYQVLSQ | inactive
EASNCFAIRHFENKFAVETLICDGLECTMSNFCN | 2.02
EASNCFAIRHFENKFAVETLICDSCLASCGVQC | 0.693
EASNCFAIRHFENKFAVETLICCLTYLRWSGALI | inactive
EASNCFAIRHFENKFAVETLICGTHVLLIHLKCV | 0.148
EASNCFAIRHFENKFAVETLICLLRSSINMQGGW | inactive
EASNCFAIRHFENKFAVETLICWW | 4.34
EASNCFAIRHFENKFAVETLICLPYDTPVSWCDR | inactive
EASNCFAIRHFENKFAVETLICGRTRDK | inactive
EASNCFAIRHFENKFAVETLICGGFLRYAVSRC | 2.76
EASNCFAIRHFENKFAVETLICHSSGYNRFHNNV | 3.59
EASNCFAIRHFENKFAVETLICLILFNTVFPDIV | inactive

same assay, conditions: random library (experiment): 2

Sequence | amyloid nucleation score
EASNCFAIRHFENKFAVETLICGGAWRMAVRERA | 3.1
EASNCFAIRHFENKFAVETLICFKPYEGEICSLT | 3.55
EASNCFAIRHFENKFAVETLICGVLCDSGSICGV | 5.71
EASNCFAIRHFENKFAVETLICICMFGRRLSVCI | inactive
EASNCFAIRHFENKFAVETLICRYFNCNAGMLFV | inactive
EASNCFAIRHFENKFAVETLICLSVVNHVFILCR | inactive
EASNCFAIRHFENKFAVETLICFKNVKSG | inactive
EASNCFAIRHFENKFAVETLICVMHMWLSASIVN | inactive
EASNCFAIRHFENKFAVETLICTCANFGYAVIM | 7.96
EASNCFAIRHFENKFAVETLICNTSNIVCAEDHR | 4.88
EASNCFAIRHFENKFAVETLICRFSMYWSDLIRR | -0.0953
EASNCFAIRHFENKFAVETLICAGFFIMFRDCME | inactive
EASNCFAIRHFENKFAVETLICVATYIVSMLYMR | inactive
EASNCFAIRHFENKFAVETLICCAYIILKSVSHW | 0.55
EASNCFAIRHFENKFAVETLICNVGSVQCFVLSL | 6.59
EASNCFAIRHFENKFAVETLICVLW | 4.24
EASNCFAIRHFENKFAVETLICFCG | 7.5
EASNCFAIRHFENKFAVETLICGVS | -0.00995

Sequence | amyloid nucleation score
EASNCFAIRHFENKFAVETLICYIKLACSQLYV | inactive
EASNCFAIRHFENKFAVETLICILTSAWRNVSC | inactive
EASNCFAIRHFENKFAVETLICAIIIGYCVTIPW | inactive
EASNCFAIRHFENKFAVETLICHGRMDHFNKSPL | 2.03
EASNCFAIRHFENKFAVETLICLMWHHVNAQTDF | 2.68
EASNCFAIRHFENKFAVETLICQTHNIYVITFLE | 4.38
EASNCFAIRHFENKFAVETLICREFVVHCFSSEC | inactive
EASNCFAIRHFENKFAVETLICCFVLLNSNRAAI | 3.17
EASNCFAIRHFENKFAVETLICVRGEAVGRVPWL | 4.26
EASNCFAIRHFENKFAVETLICFGPLFKKLDADY | 3.25
EASNCFAIRHFENKFAVETLICVGMWIMYGMETR | inactive
EASNCFAIRHFENKFAVETLICRGQCRYSGSSSV | -0.0296
EASNCFAIRHFENKFAVETLICPFYLCPL | 4.03
EASNCFAIRHFENKFAVETLICRLNKFRYGCLIS | inactive
EASNCFAIRHFENKFAVETLICKIE | 4.97
EASNCFAIRHFENKFAVETLICLFKEYRS | inactive
EASNCFAIRHFENKFAVETLICFLKFIYCNVLRE | -0.0198

same assay, conditions: random library (experiment): 3

Sequence | amyloid nucleation score
EASNCFAIRHFENKFAVETLICGYYM | inactive
EASNCFAIRHFENKFAVETLICRYHMCYVTGSAL | inactive
EASNCFAIRHFENKFAVETLICLSTYNLLHISGE | inactive
EASNCFAIRHFENKFAVETLICMWWWPIVKSGRC | inactive
EASNCFAIRHFENKFAVETLICPEKVSRRVCGNW | inactive
EASNCFAIRHFENKFAVETLICCRVMAFGFDYYN | 4.72
EASNCFAIRHFENKFAVETLICVFCCVVTGSGAS | 4.73
EASNCFAIRHFENKFAVETLICLASQASPPGEAV | 0.632
EASNCFAIRHFENKFAVETLICRVLWWQRRNADC | inactive
EASNCFAIRHFENKFAVETLICKLPIYNESGAMC | inactive
EASNCFAIRHFENKFAVETLICTCRQGHWKVPSG | inactive
EASNCFAIRHFENKFAVETLICRLPSSVFDRSWR | 5.12
EASNCFAIRHFENKFAVETLICVSDAMWVLLEDQ | inactive
EASNCFAIRHFENKFAVETLICGFIGDWVFRSW | 5.62
EASNCFAIRHFENKFAVETLICTICKVGRVNGDV | 2.96
EASNCFAIRHFENKFAVETLICFLAVLLEPVKLG | inactive
EASNCFAIRHFENKFAVETLICTVSWSEMRDYFG | inactive
EASNCFAIRHFENKFAVETLICIWQ | 7.08
EASNCFAIRHFENKFAVETLICGTMSPLCSRCEW | 4.76
EASNCFAIRHFENKFAVETLICPKWVNYPGRG | 2.58
EASNCFAIRHFENKFAVETLICVMGMGVEPAVSW | 0.0748
EASNCFAIRHFENKFAVETLICEVSVASSWDQWA | inactive
EASNCFAIRHFENKFAVETLICGWRARQSSCSTG | inactive
EASNCFAIRHFENKFAVETLICCENTL | 5.62
EASNCFAIRHFENKFAVETLICACPQPLLRWAWG | inactive
EASNCFAIRHFENKFAVETLICEVMPGVGRQRRA | 2.93
EASNCFAIRHFENKFAVETLICASVIVISVGAVV | inactive
EASNCFAIRHFENKFAVETLICALIGVNCSSVAE | 9.35
EASNCFAIRHFENKFAVETLICLKVEQLAGTVVV | inactive
EASNCFAIRHFENKFAVETLICGYLIVVLTHRID | inactive
